Measured values from PubChem BioAssay AID434955 (Southern Research Specialized Biocontainment Screening …, 2010).
This is one part of the list. The main result of the screen is listed elsewhere. These columns were measured beside it and carry no call. The list favours compounds with an active or inconclusive main result.

Assay: beta-lactam sensitization of Mtb H37Rv, H37Rv (AID 434955);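 also: growth measured after seven days incubation then overnight dye step; 0% = bacteria only wells and 100% = bacteria with antibiotic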
Settings: M. tuberculosis H37Rv growth with meropenem, percent inhibition; measured here: primary screen without meropenem; at 25 µM

Row | SMILES | inhibition [%]
1 | C=CCn1c(SCc2ccc(C(=O)Nc3nccs3)cc2)nnc1-c1ccc(C)c(Cl)c1 | 26.3
2 | O=C(c1cc(-c2ccco2)on1)N1CCOCC1 | 1.61
3 | COc1cccc(C(=O)COC(=O)CCCC(=O)NC2CCCCC2)c1 | -12.1
4 | CCC(=O)Nc1cccc(NC(=O)CSc2nnnn2C)c1 | 4.82
5 | Cc1cccc2c1cnn2C(=O)CCC(=O)NCc1ccc(F)cc1 | -10.1
6 | CN(C)CCCOC(=O)c1ccc(Cl)cc1Cl | -8.04
7 | CCOc1ccccc1NC(=O)c1ccc2c(c1)C(=O)N(CC1CCCO1)C2=O (centres undefined) | 51.7
8 | CCOC(=O)N1CCN(C(=O)CSc2nnc(-c3ccccc3OC)o2)CC1 | 41.9
9 | CC(CN1CCC(n2nccc2NC(=O)C2CCCC2)CC1)c1ccccc1 (centres undefined) | 0.64
10 | Cc1ccnc(NC(=O)c2ccc(Cl)s2)c1 | 11.2
11 | O=C(O)C1C2C=CC(C2)C1C(=O)NCc1ccoc1 (centres undefined) | -5.23
12 | Cc1ccc(NC(=O)c2ccc(Cn3cc(Cl)cn3)o2)c(C)c1 | 0.24
13 | COc1cc(NC(=O)c2ccc(CNc3c(N4CCCC4)c(=O)c3=O)cc2)cc(OC)c1OC | -5.79
14 | Cc1ccc(OCc2nnc(SCC(=O)Nc3cc(C)on3)n2C)cc1 | -3.47
15 | CC1Cn2c(nnc2-c2ccccc2O)S1 (centres undefined) | 1.72
16 | CC(C)c1csc(CN2CCC(CCC(=O)NCC3CCCO3)CC2)n1 (centres undefined) | -8.39
17 | CCn1cc(S(=O)(=O)c2cccc(C)c2)c(=O)c2cc(F)c(N3CCN(C)CC3)cc21 | 4.09
18 | CCn1c2ccccc2c2cc(/C=N/NC(=O)c3ccccc3)ccc21 | 6.16
19 | Cn1c(=O)[nH]c(=O)c2c1nc(Br)n2CCCSc1nc2ccccc2o1 | 0.84
20 | CN1CCC(Oc2ccccc2Sc2ccc(C(F)(F)F)cc2)CC1 | 51.2
21 | CCOC(=O)N1CCN(C(=O)CSCC(=O)Nc2nc(-c3ccc(OC)cc3)cs2)CC1 | -11.8
22 | CCOc1ccccc1/C=N/n1c(C2CCCCC2)n[nH]c1=S | 4.1
23 | COc1cc(-c2nnc(SCc3cc(=O)oc4cc(C)ccc34)o2)cc(OC)c1OC | -12.1

Row | SMILES | inhibition [%]
24 | COc1cc(C)ccc1OCc1cc(C(=O)NCCN2CCOCC2)no1 | -5.05
25 | c1ccc2c(c1)Cn1nc(Cc3nc4c(s3)CCCC4)nc1-2 | 17
26 | CC(=O)OCC(=O)Nc1ccc(C(C)=O)cc1 | 28.2
27 | COc1cccc(C(=O)NNc2c3ccccc3nc3ccccc23)c1 | 12.7
28 | NC(=S)N/N=C/c1ccc([N+](=O)[O-])cc1 | 42.6
29 | O=C(CCS(=O)(=O)c1ccccc1)N(CCCN1CCOCC1)c1nc2c(F)cccc2s1 | 49.6
30 | Cc1cc(=O)c2ccc3ccccc3c2[nH]1 | 10.2
31 | CCCCn1c(N2CCCC2)nc2c1c(=O)[nH]c(=O)n2C | -8.87
32 | Cc1cccc(C)c1NC(=O)CN(C)C(=O)c1ccc(COc2ccccc2)cc1 | 11.8
33 | Cc1nn(C)cc1S(=O)(=O)N1CCN(c2ccccc2)CC1 | 5.84
34 | CCn1c(=O)c2cc(C(=O)N(C)c3ccccc3F)sc2c2ccccc21 | 2.55
35 | COCc1ccc(C(=O)NC2CCCc3c2cnn3-c2ccc(C)c(C)c2)o1 (centres undefined) | 2.57
36 | O=C(Cc1ccc2c(c1)OCCO2)N1CCN(S(=O)(=O)c2cccc(C(F)(F)F)c2)CC1 | 7.34
37 | O=C(NC1CCCCCCC1)c1ccc(Br)cc1 | 2.94
38 | COc1cc(-c2nn3c(-c4cccc(C)c4)nnc3s2)cc(OC)c1OC | -4.61
39 | CCc1nc(SCC(=O)Nc2ccc([N+](=O)[O-])cc2)n[nH]1 | -2.26
40 | Cc1ccccc1CN1CCC(CNC(=O)Nc2ccc(F)cc2F)CC1 | -0.41
41 | CCCC1O[C@@H]2CC3C4CCC5=CC(=O)C=C[C@]5(C)C4C(OC(C)=O)C[C@]3(C)[C@]2(C(=O)COC(C)=O)O1 (some centres undefined) | 10.7
42 | O=C(Nc1ccc(S(=O)(=O)N2CCCCC2)cc1)C1CCCN(C(=O)c2ccc(Cl)cc2)C1 (centres undefined) | 8.02
43 | O=C(CN1C(=O)c2cccc([N+](=O)[O-])c2C1=O)N1CCN(c2ccc(F)cc2)CC1 | 15.1
44 | Cc1ccc(S(=O)(=O)c2nc(-c3ccccc3F)oc2N2CC(C)OC(C)C2)cc1 (centres undefined) | -2.28
45 | CCn1c(SCC(=O)Nc2nc(C)c(C)s2)nnc1-c1ccco1 | -1.58
46 | COc1ccc(CCNC(=O)Cc2ccc3c(c2)OCO3)cc1OC | -0.39

Row | SMILES | inhibition [%]
47 | COc1ccc(CN2CCc3ccc(NC(=O)c4ccncc4)cc3C2)c(F)c1 | 3.92
48 | Cn1c(=O)c(=O)n(C)c2cc(N3CCCCC3)c(NS(=O)(=O)c3ccc([N+](=O)[O-])cc3)cc21 | 1.01
49 | CCOC(=O)C(Cc1ccccc1)NC(C)=O (centres undefined) | -0.06
50 | N#Cc1ccc(-c2nc3cc(Cl)ccc3c(=O)n2O)cc1 | 77.5
51 | CCOC(=O)c1[nH]c(C)c(CCC(=O)O)c1C | -0.75
52 | Cc1ccnc(N2CCC(C(=O)Nc3cccc(C(F)(F)F)c3)CC2)n1 | 91.5
53 | Cn1c(/C=C/c2ccc(Br)cc2)c([N+](=O)[O-])c(=O)n(C)c1=O | 32.7
54 | COc1ccc(C(=O)Nc2nc3ccc(OC)cc3s2)cc1 | 45.5
55 | CC1CCN(c2oc(-c3ccccc3F)nc2C#N)CC1 | -2.56
56 | O=[N+]([O-])c1cccc(NC(=S)Nc2nc(-c3ccc(Cl)cc3Cl)cs2)c1 | 46.6
57 | Cc1onc(-c2ccccc2)c1C(=O)Nc1ccc(-c2nnc3n2CCCCC3)cc1 | 15.7
58 | Cc1cccc(CC(=O)Nc2c3c(nn2-c2cccc(Cl)c2)CS(=O)C3)c1 (centres undefined) | 0.89
59 | Cc1cccc(CC(=O)N2CCC(n3nccc3NC(=O)C3CC3)CC2)c1 | -1.86
60 | O=C(NC1CCCc2ccccc21)C1CCN(S(=O)(=O)c2ccccc2)CC1 (centres undefined) | -0.49
61 | CC(C)Cn1c2c(c(O)c(C(=O)Nc3ccc(F)cc3)c1=O)CCCC2 | 25.4
62 | O=C(O)C1CCCCC1C(=O)NC1CCCCC1 (centres undefined) | 6.52
63 | CN(CCCC(=O)NCc1ccc2c(c1)OCO2)S(=O)(=O)c1ccc([N+](=O)[O-])cc1 | -2.25
64 | C=CCCC(=O)N1CCC(n2nccc2NC(=O)c2ccccc2C)CC1 | -2.71
65 | CCOc1ccc(NC(=O)CC2C(=O)N(c3ccccc3)C(=O)N2CCc2cccs2)cc1 (centres undefined) | 1.22
66 | COc1cc(/C=N/NC(=O)c2ccc3c(c2)OCCO3)cc(Cl)c1O | 7.78
67 | Oc1ccccc1/C=N/n1c(COc2ccccc2)n[nH]c1=S | 6.84
68 | Cc1cccc(/C=N\NC(=O)c2csnn2)c1 | 52.1
69 | COc1ccc(C2N(c3ccc(F)cc3)C(=O)C3CCCN32)cc1 (centres undefined) | -7.75
